This is one part of the list. At the low end of the ranking the order means little. Measured with an extract: partners may take part in the binding.
What follows are sequences tested against T1, HNF4alpha2 (COS-7 nuclear extract) (UniProt P41235) (assay: protein-binding microarray). Settings: COS-7 nuclear extract on double-stranded Agilent 4x180k PBM; binding buffer, salt, pH and temperature not given; high values mean tight binding; double strand, one strand shown; sequences stand for … in …GCCTAGGGAGATTAGAGTATCGGTCGA.
T1 sequence: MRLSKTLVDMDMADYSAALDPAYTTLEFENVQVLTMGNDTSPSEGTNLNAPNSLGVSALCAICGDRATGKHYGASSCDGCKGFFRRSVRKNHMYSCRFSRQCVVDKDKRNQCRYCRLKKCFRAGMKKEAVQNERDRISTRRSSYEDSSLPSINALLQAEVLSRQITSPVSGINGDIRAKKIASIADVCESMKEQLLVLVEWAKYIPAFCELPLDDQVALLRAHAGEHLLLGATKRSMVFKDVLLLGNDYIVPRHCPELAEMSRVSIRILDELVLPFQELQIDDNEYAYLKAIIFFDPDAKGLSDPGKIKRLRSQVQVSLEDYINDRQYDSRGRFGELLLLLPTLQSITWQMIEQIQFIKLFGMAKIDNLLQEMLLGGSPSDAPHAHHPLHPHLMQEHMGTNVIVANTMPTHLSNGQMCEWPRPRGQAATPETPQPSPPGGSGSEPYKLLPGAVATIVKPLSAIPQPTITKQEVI
CTGACAGAACTAAGCTGTTGCGTAAGGGTC was tested, and the binding signal (log2 normalized intensity) was 1.51. With GCAAGATCTCACAGATTAAGTCACGTGGAG the binding signal (log2 normalized intensity) was 0.448. For TTAAAAAGCAAACAAAACACGGACTTTGAA, the binding signal (log2 normalized intensity) was 4.06. AGGTCACTTTACAGATAAAGAAACCATAGA was tested, and the binding signal (log2 normalized intensity) was -1.2. CTGCCCTTCTGACCTCCCAGGGATACTGTG was tested, and the binding signal (log2 normalized intensity) was 2.47. For CTCCTAAGCAGGACAGCAGAGTGGAGGCCA, the binding signal (log2 normalized intensity) was -1.2. In the case of ACATTCTTCCATATAACCCTTGAACCTTCT, the binding signal (log2 normalized intensity) is reported as 4.97. Sequence AACAGGCAGAAGAATGGATGAGCTAATCAG has a binding signal (log2 normalized intensity) of -1.09. TAGTGCATAGTGGGTTTCGGTGTCATCTAG was tested, and the binding signal (log2 normalized intensity) was 1.41. With GCAGTTTGTCAAGTGCCCGGATAAACTTCC the binding signal (log2 normalized intensity) was -1.14. CTAAGCACCTCTGCTTATCTCAACTGATTT gave a binding signal (log2 normalized intensity) of -1.13. Work on AGCTTTTTGTTTGTGTAAGTGTGGGTTTAA yielded a binding signal (log2 normalized intensity) of 2.06. GTCACTCCTTCCTCAAGACCCTTTACTGCC was tested, and the binding signal (log2 normalized intensity) was 2.2. Work on TCTCTGGAGGTCACTGCTGGTGGGTGGGGG yielded a binding signal (log2 normalized intensity) of 0.804. TGGAGTGCACTGTGATCTTTAGAAAATACT showed a binding signal (log2 normalized intensity) of -0.194. With CAGGGATCAAATCCTAACATGCTGCAGGCA the binding signal (log2 normalized intensity) was -0.931. For CCAAACAATGCAAGAGAGGTCACAACAGAA, the binding signal (log2 normalized intensity) was -0.621. In the case of CCCCACCATTGTTATCTGATCAAATTCCAC, the binding signal (log2 normalized intensity) is reported as 2.47. CAAAGTCCTCCAACTGCCACGGTAAATATT was tested, and the binding signal (log2 normalized intensity) was 1.2. Work on TCTCTCTCTCTTTCTTCCCCCACTCCAAGT yielded a binding signal (log2 normalized intensity) of 5.09. Work on CCAAATTCCAGCTGAAGTTCCCAGCCCTTC yielded a binding signal (log2 normalized intensity) of -0.272. Work on CAGGGGTCATCAGATAGATGGTCAGTGAAC yielded a binding signal (log2 normalized intensity) of 1.44. In the case of GGCGACCTTCGCTCGGCTCGCTCTCCCTGC, the binding signal (log2 normalized intensity) is reported as -0.986. CCAGTGGTCCCTGGAGATAATAGTGGCTGA gave a binding signal (log2 normalized intensity) of -1.05. Work on GTAAGGTCGACCTTTAAACGTTTGCTGGAT yielded a binding signal (log2 normalized intensity) of 4.17. With TTAGAGAGAGAAATTGCTTAAGTGCTTGTC the binding signal (log2 normalized intensity) was -0.00985. Work on GTTGCTTCCACCTATGAGTCTGTAAAGTCA yielded a binding signal (log2 normalized intensity) of 0.468. GCAATTCCCCTGGGCCCACGGCTCTGCACA was tested, and the binding signal (log2 normalized intensity) was -1.23. With CTTTACATTTATTAGAACCTTATGTGAGTA the binding signal (log2 normalized intensity) was 1.53. For CCCAAACTTAAAAGAAGCTACTAGCAAATC, the binding signal (log2 normalized intensity) was -1.11. Work on TAAAGCGGACGGGCTGCGGAGGCGACTGCA yielded a binding signal (log2 normalized intensity) of -0.854. With TCTTATGTCCCTCCTGACCTTTGGACTTGA the binding signal (log2 normalized intensity) was 10.3. ATTTTATGCTTACTGCCTCAGGGAGGAGTT was tested, and the binding signal (log2 normalized intensity) was -1.17. With GCAGTAACGGCAGGGTTGTGCAGGACTGCG the binding signal (log2 normalized intensity) was -1.26. For GGTTAAAATTTATCTATTGGGTACAATGTT, the binding signal (log2 normalized intensity) was 2.06. AAATCTTAAGGAGGAGTGCTAGAGAAAGGA was tested, and the binding signal (log2 normalized intensity) was -1.1. CAGGGACCTTTGTTCCTTTACACATGAGAG gave a binding signal (log2 normalized intensity) of 2.21. GAGGAAAAGGAGGAGTTTGACCCCAGGTAG showed a binding signal (log2 normalized intensity) of 4.41. In the case of AGGAGCCAATTATGCTGGCAGTAGGGAGGT, the binding signal (log2 normalized intensity) is reported as -0.989. GACGCAGAGAAGCACTGCAGTTTAAGTCTG gave a binding signal (log2 normalized intensity) of -1.18. For ACTTGAGGTATGATGCATCCTGAGGCAAAA, the binding signal (log2 normalized intensity) was -0.917. Work on GGAAATGATAGCATCCCAGTAGAAAAAAAA yielded a binding signal (log2 normalized intensity) of -1.13. AGTCCCATAACTGACTGTGTCTGTTTACCC gave a binding signal (log2 normalized intensity) of 0.97. ACTGATAGGTGCGTGGGGGAGGGGCCAGGA gave a binding signal (log2 normalized intensity) of -1.13. TTCTTAGGGAGATGGATATATGTACAGCTG showed a binding signal (log2 normalized intensity) of 0.153. With GTTTTTTTCACCTGGGGCCTTGGGCCACCT the binding signal (log2 normalized intensity) was -1.13. Sequence TTTCTCTTTTGACCTTTGGACTTTCACATT has a binding signal (log2 normalized intensity) of 10.5.
